In all, about 1,000 compounds were measured (“relative growth recovery (pomalidomide 10 uM = 100%, DMSO = 0%)”: median about -1.6, highest 2% from about 21 on). This is one part of the list.

For this assay, the system named is HEK293FT dCK*-IKZF1. In words: relative growth recovery (pomalidomide 10 uM = 100%, DMSO = 0%); higher = more growth rescue (IKZF1 fusion degradation). To be noted: compound concentration: 5 uM; AraC concentration: 0.3 uM; overnight pretreatment + 4 days AraC. How it is done:
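Growth recovery screen of the molecular-glue-like (Specs) library. HEK293FT cells expressing a dCK*-IKZF1 fusion (primary) or dCK* alone (counter) were pretreated overnight with compound at 5 uM, then given 0.3 uM AraC for 4 days. Hoechst nuclei were counted by imaging. Primary: normalised to pomalidomide (100%) and DMSO (0%), mean of 2 replicates. Counter: normalised to no-AraC (100%) and AraC+DMSO (0%), single replicate.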
On to `CC(C)(C)C(=O)N1CCOC(c2cccc(Nc3ncc(Cc4ccccc4)s3)n2)C1` (configuration not stated), for which the relative growth recovery was -3.79%.

`CC(C)CC(C(=O)Nc1ccc(S(=O)(=O)Nc2ccccn2)cc1)N1C(=O)c2ccccc2C1=O` (configuration not stated): the relative growth recovery was 1.38%.

`CC1Cc2cc(CCC(=O)N3CCC(c4cccc(Nc5nccs5)n4)CC3)ccc2O1` (configuration not stated): the relative growth recovery was -0.495%.

Consider `Cc1cnc(Nc2cccc(C3CN(C(=O)C4(c5ccccc5)CCCC4)CCO3)n2)s1` (configuration not stated), for which the relative growth recovery was -1.48%.

For the compound `CC(=O)N1CCC(Cc2cccc(Nc3nc(C)cs3)n2)CC1`, the relative growth recovery is 10.6%.

On to `CCOCc1ccc(C(=O)N2CCOC(c3cccc(Nc4nccs4)n3)C2)cc1` (configuration not stated), for which the relative growth recovery is 5.5%.

Turning to `Cc1cnc(Nc2cccc(C3CN(C(=O)CCc4ccc(S(N)(=O)=O)cc4)CCO3)n2)s1` (configuration not stated), the relative growth recovery is 0.615%.

Regarding `COc1cc(NS(=O)(=O)c2ccc(NC(=O)COc3ccccc3C)cc2)nc(OC)n1`, the relative growth recovery is -12.5%.

Take `Cc1nc(Nc2cccc(C3CCN(C(=O)C(C)C)CC3)n2)sc1C`: the relative growth recovery was determined as 11.3%.

Turning to `O=C1CCC(N2C(=O)c3cccc(N4CCC(C(=O)O)CC4)c3C2=O)C(=O)N1` (configuration not stated), the relative growth recovery turned out to be 7.4%.

With `CC(=O)Oc1ccccc1N1C(=O)c2ccc(Oc3ccc(N)cc3)cc2C1=O`, the relative growth recovery is -0.21%.

Regarding `Cc1csc(Nc2cccc(C3CN(C(=O)Cn4nc(C)ccc4=O)CCO3)n2)n1` (configuration not stated), the relative growth recovery came to 1.32%.

For `CC(=O)Nc1ccc(S(=O)(=O)N(C#N)c2nc(C)cc(C)n2)cc1`, the relative growth recovery was determined as 4.26%.

In the case of `Cc1nc(Nc2cccc(C3CCCN3C(=O)CCN3C(=O)CCNC3=O)n2)sc1C` (configuration not stated), the relative growth recovery amounted to 0.56%.

Consider `O=[N+]([O-])c1ccc(S(=O)(=O)Nc2nc3ccccc3nc2Nc2ccccc2)cc1`, for which the relative growth recovery came to 8.16%.

As to `Cc1cc(C)nc(NS(=O)(=O)c2ccc(NC(=O)CSc3nccn3C)cc2)n1`, the relative growth recovery is -7.77%.

On to `O=C(C1CCCCC1)N1CCC(c2cccc(Nc3ncc(Cl)s3)n2)CC1`, for which the relative growth recovery was determined as 0.27%.

In the case of `C[C@@H](N)C(=O)N1CCC(CO)(c2cccc(Nc3ncc(-c4ccccc4)s3)n2)CC1`, the relative growth recovery is -18.2%.

`CCCc1cnc(Nc2cccc(C3CCN(C(=O)[C@@H]4CCCCN4C(=O)OC(C)(C)C)CC3)n2)s1`: the relative growth recovery is -13.7%.

For the compound `Cc1cc(C)c2[nH]c3nc(SCC(=O)Nc4cc(Cl)ccc4C)nnc3c2c1`, the relative growth recovery is -3.62%.

Take `Cc1ccc2[nH]c3nc(SCC(=O)Nc4cccc(Cl)c4)nnc3c2c1`: the relative growth recovery was -6.41%.

With `CC(=O)Nc1cc(C)c(S(=O)(=O)N2CCOC(c3cccc(Nc4ncc(C)s4)n3)C2)cc1C` (configuration not stated), the relative growth recovery amounted to 9.32%.

For the compound `O=C(Cc1ccc(F)cc1)N1CCCC1c1cccc(Nc2nccs2)n1` (configuration not stated), the relative growth recovery was 10.4%.

`O=C(CSc1nnc2c(n1)[nH]c1ccccc12)Nc1ccc(F)cc1`: the relative growth recovery stood at 7.2%.

With `Cc1cnc(Nc2cccc(C3CN(C(=O)CNc4ccccc4)CCO3)n2)s1` (configuration not stated), the relative growth recovery is -13.3%.

Regarding `Cc1ccc(Oc2cccc(N3C(=O)c4ccc(Oc5ccc(N)cc5)cc4C3=O)c2)cc1C`, the relative growth recovery is -3.76%.

Regarding `Cc1ccc(C)c(OCC(=O)Nc2ccc(S(=O)(=O)Nc3ncccn3)cc2)c1`, the relative growth recovery is -18.5%.

On to `CCCc1cnc(Nc2cccc(C3CCN(C(=O)C(C)(C)NC(=O)COC)CC3)n2)s1`, for which the relative growth recovery was 0.245%.

With `Cc1ccc(CC(=O)N2CCOC(c3cccc(Nc4nc(C)c(C)s4)n3)C2)cc1C` (configuration not stated), the relative growth recovery was 12.3%.

In the case of `COC(=O)c1ccc(N2C(=O)c3ccc(Oc4cccc(N)c4)cc3C2=O)cc1`, the relative growth recovery was determined as 1.72%.

On to `Cc1noc(CCC(=O)N2CCOC(c3cccc(Nc4nc(C)c(C)s4)n3)C2)n1` (configuration not stated), for which the relative growth recovery was found to be 3.4%.

As for `CC(=O)Oc1cccc(N2C(=O)c3ccc(Oc4cccc(N)c4)cc3C2=O)c1`, the relative growth recovery is -0.785%.

For the compound `Cc1ccc2[nH]c3nc(SCC(=O)Nc4ccc(C)c(Cl)c4)nnc3c2c1`, the relative growth recovery is -24.6%.

As for `Cc1ccc(OCCCC(=O)Nc2ccc(S(=O)(=O)Nc3ccccn3)cc2)cc1`, the relative growth recovery worked out at 2.46%.

Turning to `O=C(Nc1ccc(S(=O)(=O)Nc2ncccn2)cc1)C1CC(=O)N(c2ccc(Cl)cc2)C1` (configuration not stated), the relative growth recovery stood at 5.58%.

For `Cc1cccc(Nc2nc(-c3sc(NC(=O)c4ccccc4)nc3C)cs2)n1`, the relative growth recovery came out at 121%.

With `COCCOCC(=O)Nc1ccc(S(=O)(=O)Nc2nc(C)cc(C)n2)cc1`, the relative growth recovery was -4.72%.

On to `CC1(C)C=C(CC(=O)N2CCOC(c3cccc(Nc4nccs4)n3)C2)CC(C)(C)N1` (configuration not stated), for which the relative growth recovery was -3.67%.

Take `Cc1ccc(C(=O)Nc2ccc(S(=O)(=O)Nc3cc(C)nc(C)n3)cc2)cc1`: the relative growth recovery was -1.57%.

As to `Cc1cnc(Nc2cccc(C3CCN(C(=O)C4(N)CCCCC4)CC3)n2)s1`, the relative growth recovery is -17.6%.

As to `Cc1cnc(Nc2cc(C3CCN(C(=O)/C=C/c4cnc[nH]4)CC3)ccn2)s1`, the relative growth recovery is -3.89%.

As to `CCCC(=O)Nc1ccc(S(=O)(=O)Nc2nc(C)cc(C)n2)cc1`, the relative growth recovery is -4.25%.

Turning to `Cc1cnc(Nc2cccc(C3(COC(=O)C4CCCCC4)CCN(C(=O)C4CCCCC4)CC3)n2)s1`, the relative growth recovery was -9.19%.

On to `Nc1ccc(S(=O)(=O)Nc2nccc(/C=C/c3ccc(Cl)cc3)n2)cc1`, for which the relative growth recovery was -0.605%.

In the case of `CCCc1cnc(Nc2cccc(C3CCN(C(=O)C(C)(C)NC(=O)OC(C)(C)C)CC3)n2)s1`, the relative growth recovery is -14.9%.

For `Cc1csc(Nc2cccc(C3CCCN3C(=O)Cc3ccc(F)cc3)n2)n1` (configuration not stated), the relative growth recovery amounted to 3.22%.

Regarding `CCc1nnsc1C(=O)N1CCCC1c1cccc(Nc2nc(C)cs2)n1` (configuration not stated), the relative growth recovery came to 2.26%.

The values above are taken from the supplement of paper PMC12340641.
